Measurements published in the supplement of paper PMC4604168 (melanoma cell lines).
Some of the results follow. Single values are uncertain, as repeats are few or missing.

Key:
Test in all cases: cell count relative to DMSO control; melanoma cells; higher = more viable cells
Conditions in all cases: library dose: low library concentration; 72 h
WM115 = test system: WM115
WM1716 = test system: WM1716
WM1745 = test system: WM1745
WM3526 = test system: WM3526
WM3619 = test system: WM3619
WM451Lu = test system: WM451Lu
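Also: cell number obtained by counting DAPI-stained nuclei in high-throughput microscope images with image analysis software, screen run in 1,536-well plates.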

Row | SMILES | cell count (WM115) | cell count (WM1716) | cell count (WM1745) | cell count (WM3526) | cell count (WM3619) | cell count (WM451Lu)
1 | C[C@]1(O)C[C@@H](c2nc(-c3ccc4ccc(-c5ccccc5)nc4c3)c3c(N)nccn32)C1 + NC1(c2ccc(-c3nc4ccn5c(=O)[nH]nc5c4cc3-c3ccccc3)cc2)CCC1 [MK2206] (first compound 0.4 µM, partner dose 0.4 µM) | 80.8% | 102% | 89.7% | 70.5% | 95.3% | 142%
2 | C[C@]1(O)C[C@@H](c2nc(-c3ccc4ccc(-c5ccccc5)nc4c3)c3c(N)nccn32)C1 + Cc1nc(Nc2ncc(C(=O)Nc3c(C)cccc3Cl)s2)cc(N2CCN(CCO)CC2)n1 [dasatanib] (first compound 0.4 µM, partner dose 0.004 µM) | 89.1% | 84% | 46.4% | 81.7% | 84.2% | 88.6%
3 | C[C@]1(O)C[C@@H](c2nc(-c3ccc4ccc(-c5ccccc5)nc4c3)c3c(N)nccn32)C1 + C#Cc1cccc(Nc2ncnc3cc(OCCOC)c(OCCOC)cc23)c1 [erlotinib] (first compound 0.4 µM, partner dose 0.8 µM) | 95.6% | 103% | 75% | 82.1% | 92.6% | 98.1%
4 | COc1cc([C@@H]2c3cc4c(cc3[C@@H](O[C@@H]3O[C@@H]5CO[C@@H](C)O[C@H]5[C@H](O)[C@H]3O)[C@H]3COC(=O)[C@H]23)OCO4)cc(OC)c1O [etoposide] + COCC[n+]1c2c(n(Cc3cnccn3)c1C)C(=O)c1ccccc1C2=O [YM155] (first compound 0.02 µM, partner dose 0.0004 µM) | 91.9% | 92.8% | 89.6% | 103% | 102% | 88.1%
5 | CCN(CC)CCNC(=O)c1c(C)[nH]c(/C=C2\C(=O)Nc3ccc(F)cc32)c1C [sunitinib] + Cc1cc([N+](=O)[O-])ccc1NS(=O)(=O)c1cc(Cl)ccc1Cl [FH535] (first compound 0.4 µM, partner dose 1 µM) | 92% | 117% | 87.7% | 79.1% | 104% | 92.6%
6 | C[C@]1(O)C[C@@H](c2nc(-c3ccc4ccc(-c5ccccc5)nc4c3)c3c(N)nccn32)C1 + COCC[n+]1c2c(n(Cc3cnccn3)c1C)C(=O)c1ccccc1C2=O [YM155] (first compound 0.4 µM, partner dose 0.0004 µM) | 106% | 107% | 64% | 92.2% | 99.6% | 70%
7 | COc1cc([C@@H]2c3cc4c(cc3[C@@H](O[C@@H]3O[C@@H]5CO[C@@H](C)O[C@H]5[C@H](O)[C@H]3O)[C@H]3COC(=O)[C@H]23)OCO4)cc(OC)c1O [etoposide] + Nc1ncn([C@H]2C[C@H](O)[C@@H](CO)O2)c(=O)n1 [decitabine] (first compound 0.02 µM, partner dose 0.1 µM) | 82.5% | 84.7% | 112% | 101% | 109% | 94.8%
8 | C[C@]1(O)C[C@@H](c2nc(-c3ccc4ccc(-c5ccccc5)nc4c3)c3c(N)nccn32)C1 + O=C(O)c1ccc2c(c1)nc(Nc1cccc(Cl)c1)c1ccncc12 [CX4945] (first compound 0.4 µM, partner dose 0.4 µM) | 98.6% | 97.4% | 84.7% | 79.2% | 97.4% | 86.8%
9 | C[C@]1(O)C[C@@H](c2nc(-c3ccc4ccc(-c5ccccc5)nc4c3)c3c(N)nccn32)C1 + Cn1c(=O)n(-c2ccc(C(C)(C)C#N)cc2)c2c3cc(-c4cnc5ccccc5c4)ccc3ncc21 [NVP-BEZ235] (first compound 0.4 µM, partner dose 0.004 µM) | 88.5% | 90.5% | 77.4% | 79.6% | 80% | 87.1%
10 | Cn1cnc2c(F)c(Nc3ccc(Br)cc3Cl)c(C(=O)NOCCO)cc21 [selumetinib] + CN(C)S(=O)(=O)c1ccc2c(c1)/C(=C/c1cc3c([nH]1)CCCC3)C(=O)N2 [SU6656] (first compound 0.015 µM, partner dose 0.4 µM) | 75.5% | 110% | 70.7% | 78.2% | 84.2% | 74%
11 | Cn1cnc2c(F)c(Nc3ccc(Br)cc3Cl)c(C(=O)NOCCO)cc21 [selumetinib] + Clc1ccc(Nc2nnc(Cc3ccncc3)c3ccccc23)cc1 [vatalanib] (first compound 0.015 µM, partner dose 2 µM) | 90.9% | 99.4% | 102% | 79.3% | 97% | 110%
